The other results are listed elsewhere or left out.

Results on 153 variants are retold here after a collection of fitness landscapes (doi:10.1126/science.1257360).

B1: PhoQ; a variant is named by its letters at X, in order, P23837 (parent)
chain: MKKLLRLFFPLSLRVRFLLATAAVVLVLSLAYGMVALIGYSVSFDKTTFRLLRGESNLFYTLAKWENNKLHVELPENIDKQSPTMTLIYDENGQLLWAQRDVPWLMKMIQPDWLKSNGFHEIEADVNDTSLLLSGDHSIQQQLQEVREDDDDAEMTHSVAVNVYPATSRMPKLTIVVVDTIPVELKSSYMVWSWFIYVLSANLLLVIPLLWVAAWWSLRPIEALAKEVRELEEHNRELLNPATTRELTSLVRNLNRLLKSERERYDKYRTTLTDLTHSLKTPLXXLQXXLRSLRSEKMSVSDAEPVMLEQISRISQQIGYYLHRASMRGGTLLSRELHPVAPLLDNLTSALNKVYQRKGVNISLDISPEISFVGEQNDFVEVMGNVLDNACKYCLEFVEISARQTDEHLYIVVEDDGPGIPLSKREVIFDRGQRVDTLRPGQGVGLAVAREITEQYEGKIVAGESMLGGARMEVIFGRQHSAPKDE

The variants in this experiment derive from B1. Description: enrichment ratio after two sorts for PhoP signalling (ratio (wild type AVST 3.29)); higher = more functional. To be noted: with PhoP (E. coli).
In the case of YMLI, the enrichment ratio was not above 0.25. The same measure for FRCD: not above 0.25; for MWWP: not above 0.25; for YGFS: not above 0.25. Take NMEF: the enrichment ratio was not above 0.25.

With VCQL, the enrichment ratio is not above 0.25. Consider AISS, for which the enrichment ratio came out at 11.1.

APTS: the enrichment ratio was not above 0.25. In the case of GSWD, the enrichment ratio was not above 0.25. HVCR: the enrichment ratio was not above 0.25. Turning to FRHP, the enrichment ratio was not above 0.25.

Consider WVMK, for which the enrichment ratio was not above 0.25.

On to KTTV, for which the enrichment ratio was not above 0.25. As for TTEW, the enrichment ratio was not above 0.25.

With MTRT, the enrichment ratio was not above 0.25. For the variant IMVV, the enrichment ratio was not above 0.25.

In the case of WFWD, the enrichment ratio was not above 0.25. As for VRLP, the enrichment ratio was not above 0.25. Consider FWHG, for which the enrichment ratio is not above 0.25.

SCWK: the enrichment ratio is not above 0.25. GGSE: the enrichment ratio is not above 0.25. The same measure for VSWR: not above 0.25; for GNGH: not above 0.25; for IFNK: not above 0.25. The value for FFPV was not above 0.25; that for DLRK was not above 0.25. In the case of ATGN, the enrichment ratio turned out to be 3.43. The value for YPHT was not above 0.25; that for WEHT was not above 0.25. As for PKGH, the enrichment ratio is not above 0.25. As to TGKV, the enrichment ratio is not above 0.25. With QCHT, the enrichment ratio is not above 0.25. Take FQVE: the enrichment ratio was not above 0.25.

With IAQS, the enrichment ratio was not above 0.25.

On to AQRC, for which the enrichment ratio is not above 0.25. On to GIHM, for which the enrichment ratio was not above 0.25. On to SCQE, for which the enrichment ratio is not above 0.25. With DGTS, the enrichment ratio is not above 0.25.

On to DCCI, for which the enrichment ratio is not above 0.25.

DNNY: the enrichment ratio was not above 0.25. The same measure for PGFF: not above 0.25; for MRCV: not above 0.25; for EQNA: not above 0.25. Regarding IGFN, the enrichment ratio is not above 0.25. Turning to RYCF, the enrichment ratio was not above 0.25. Consider HRVI, for which the enrichment ratio was not above 0.25. For FCKT, the enrichment ratio was not above 0.25.

As for FCPF, the enrichment ratio is not above 0.25. The same measure for WFCD: not above 0.25; for VVIQ: not above 0.25; for GVVF: 0.871. GHVP: the enrichment ratio is not above 0.25.

As to WQGQ, the enrichment ratio is not above 0.25. VLQM: the enrichment ratio was not above 0.25.

With LTSA, the enrichment ratio was not above 0.25. With EHVW, the enrichment ratio is not above 0.25. For the variant IQCI, the enrichment ratio is not above 0.25. As to QNGQ, the enrichment ratio was not above 0.25.

On to THEG, for which the enrichment ratio was not above 0.25.

For the variant FQAN, the enrichment ratio was not above 0.25. Consider KMNN, for which the enrichment ratio was not above 0.25. For PHTS, the enrichment ratio is not above 0.25. For the variant NIIY, the enrichment ratio is not above 0.25. As for VIWC, the enrichment ratio was not above 0.25. Turning to PSTD, the enrichment ratio is not above 0.25. For MSCN, the enrichment ratio was determined as 1.97.

YHYG: the enrichment ratio was not above 0.25.

For VRFE, the enrichment ratio is not above 0.25.

As to AMKM, the enrichment ratio is not above 0.25. Take HIHN: the enrichment ratio is not above 0.25.

VQVH: the enrichment ratio was not above 0.25. The same measure for VNCE: not above 0.25; for TQDH: not above 0.25. The value for QFKH was 2.9; that for YEAW was not above 0.25; that for ILKM was not above 0.25.

For IYFW, the enrichment ratio is not above 0.25. On to WKEQ, for which the enrichment ratio was not above 0.25. The same measure for AQPP: not above 0.25; for FGYS: not above 0.25; for VHRN: not above 0.25. As for YWDM, the enrichment ratio is not above 0.25.

Turning to NKHD, the enrichment ratio is not above 0.25. In the case of PAFF, the enrichment ratio is not above 0.25.

Consider IAGP, for which the enrichment ratio was not above 0.25. The same measure for VKQP: not above 0.25; for NHLR: not above 0.25. The same measure for YLGP: not above 0.25; for DRVC: not above 0.25; for PTHF: not above 0.25. The value for VPNM was not above 0.25; that for YYDH was not above 0.25; that for IDRF was not above 0.25. Take PPTN: the enrichment ratio was not above 0.25.

IVIW: the enrichment ratio is not above 0.25.

With PVET, the enrichment ratio is not above 0.25. Regarding MVGC, the enrichment ratio is not above 0.25. Regarding DNWW, the enrichment ratio was not above 0.25. For the variant HDRR, the enrichment ratio is not above 0.25. In the case of DAHV, the enrichment ratio was not above 0.25. DIVR: the enrichment ratio was not above 0.25. The same measure for QCWH: not above 0.25; for KISS: not above 0.25.

As to LCSV, the enrichment ratio is not above 0.25. The same measure for KQRW: not above 0.25.

GKVL: the enrichment ratio stood at 1.26. The same measure for PQLS: not above 0.25.

For NDDG, the enrichment ratio was not above 0.25. Regarding KFED, the enrichment ratio is not above 0.25. Turning to SVPD, the enrichment ratio was not above 0.25.

In the case of FERG, the enrichment ratio is not above 0.25. In the case of RCYP, the enrichment ratio was not above 0.25. The value for VANF was not above 0.25. The value for KNNR was not above 0.25; that for YLTV was not above 0.25. The value for TIQF was 9.01; that for TIQL was 10.3.

As to QMSR, the enrichment ratio was not above 0.25.

Regarding VDYH, the enrichment ratio is not above 0.25. The value for QPIL was not above 0.25. The value for DQPR was not above 0.25; that for DYFC was not above 0.25; that for QVEL was not above 0.25. On to HGCI, for which the enrichment ratio was found to be 17.9. Turning to TNGF, the enrichment ratio is 15.9. Regarding RMVN, the enrichment ratio was not above 0.25. The same measure for SYWR: not above 0.25; for DYVF: not above 0.25.

As for IYWQ, the enrichment ratio was not above 0.25.

As to LVVG, the enrichment ratio was not above 0.25. Consider PEEG, for which the enrichment ratio is not above 0.25. The value for VKVA was not above 0.25; that for WHSL was not above 0.25.

For YWHH, the enrichment ratio is not above 0.25.

With YKLK, the enrichment ratio was not above 0.25.

As to TDYD, the enrichment ratio is not above 0.25. Turning to FTYQ, the enrichment ratio was not above 0.25. Turning to HEQA, the enrichment ratio is not above 0.25. With AIAW, the enrichment ratio is 2.98. For QIKI, the enrichment ratio was not above 0.25. As for QAMH, the enrichment ratio is not above 0.25. On to KRAP, for which the enrichment ratio was not above 0.25. As to KRTH, the enrichment ratio was not above 0.25. With SWWY, the enrichment ratio is not above 0.25. For the variant FAMI, the enrichment ratio stood at 2.3. As to TEVA, the enrichment ratio stood at 6.58.

For AFNQ, the enrichment ratio was not above 0.25.

AHGV: the enrichment ratio was not above 0.25. For the variant WRAW, the enrichment ratio was not above 0.25. As to MPPA, the enrichment ratio was not above 0.25. For KKIS, the enrichment ratio is not above 0.25. With MRLS, the enrichment ratio is not above 0.25. For GSLM, the enrichment ratio came to 20.9.
